# Laboratory results: PMC4336329 (PLoS ONE, 2015)
# Hit rate of the full screen: of about 310,000 compounds, about 14,000 (4.5%) showed an effect of 50% or more. The effect is printed as a negative number. The list shows a part of the results.
# Molecular target: human ether-à-go-go-related gene (hERG) potassium channel (human, UniProt Q12809)
# Assay: primary screen, population patch clamp on CHO cells stably expressing hERG
# 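Note: peak tail current of the secondary pulse compared with the same well before compound.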
# Sequence of human ether-à-go-go-related gene (hERG) potassium channel (Q12809 whole entry, looked up): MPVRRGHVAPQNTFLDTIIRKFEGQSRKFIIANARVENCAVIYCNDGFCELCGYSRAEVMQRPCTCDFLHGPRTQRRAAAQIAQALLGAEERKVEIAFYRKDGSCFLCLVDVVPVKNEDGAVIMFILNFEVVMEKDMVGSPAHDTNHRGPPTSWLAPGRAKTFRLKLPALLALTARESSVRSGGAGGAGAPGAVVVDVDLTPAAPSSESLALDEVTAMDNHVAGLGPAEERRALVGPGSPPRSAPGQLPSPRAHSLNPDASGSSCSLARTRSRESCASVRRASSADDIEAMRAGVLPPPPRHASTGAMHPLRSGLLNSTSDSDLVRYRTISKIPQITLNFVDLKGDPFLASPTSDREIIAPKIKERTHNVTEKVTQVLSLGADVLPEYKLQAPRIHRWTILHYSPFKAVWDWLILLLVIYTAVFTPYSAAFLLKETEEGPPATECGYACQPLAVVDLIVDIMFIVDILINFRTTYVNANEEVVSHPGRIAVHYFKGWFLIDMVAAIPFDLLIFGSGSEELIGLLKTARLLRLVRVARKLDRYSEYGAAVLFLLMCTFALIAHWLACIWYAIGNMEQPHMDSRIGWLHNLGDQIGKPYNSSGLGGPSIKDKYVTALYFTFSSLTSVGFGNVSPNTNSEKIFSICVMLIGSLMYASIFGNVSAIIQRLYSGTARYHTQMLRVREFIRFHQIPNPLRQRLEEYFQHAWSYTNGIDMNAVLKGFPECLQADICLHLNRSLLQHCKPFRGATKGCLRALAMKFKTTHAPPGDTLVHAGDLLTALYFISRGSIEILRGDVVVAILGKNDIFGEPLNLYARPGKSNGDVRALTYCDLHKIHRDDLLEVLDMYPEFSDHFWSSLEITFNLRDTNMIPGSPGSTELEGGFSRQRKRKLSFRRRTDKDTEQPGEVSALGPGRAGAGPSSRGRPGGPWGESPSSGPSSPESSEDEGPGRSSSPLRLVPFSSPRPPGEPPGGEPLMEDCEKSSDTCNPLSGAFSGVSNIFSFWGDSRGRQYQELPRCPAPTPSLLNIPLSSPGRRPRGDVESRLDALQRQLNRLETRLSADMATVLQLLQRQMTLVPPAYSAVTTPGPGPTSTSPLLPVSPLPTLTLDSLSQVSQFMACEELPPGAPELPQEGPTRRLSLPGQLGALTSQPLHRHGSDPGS
row,Compound,"hERG current change (%, negative = inhibition) at 10uM"
1,Cc1cc(NC(=O)CSCCc2ccncc2)no1,8.74%
2,O=C(Nc1ccc2oc(=O)ccc2c1)c1ccc2ccccc2c1,19.4%
3,COc1ccc(C2C3=C(CCCC3=O)NC3=C2C(=O)c2ccccc23)cc1 (stereo not drawn),3.5%
4,CCOc1ccc(C(C)=O)cc1CC(C(N)=O)C(N)=O,14.6%
5,Cl.N=C(N)SCc1ccc(O)c([N+](=O)[O-])c1,-0.169%
6,Cc1cc(C)cc(C(=O)OCC(=O)NC2CCCC2)c1,-1.77%
7,Oc1c(N=NC(=S)Nc2ccccc2F)c2ccccc2n1Cc1ccc(Cl)cc1,20%
8,CCC(=O)NC(=S)Nc1ccc(N2CCN(C(=O)c3ccc(Cl)cc3)CC2)cc1,-34.1%
9,COc1cccc(C2=CC(c3ccc(C)cc3)n3ncnc3N2)c1 (stereo not drawn),-52.4%
10,COCCCNC(=O)c1cc2cc([N+](=O)[O-])cc(OC)c2oc1=O,13.1%
11,O=C(NCc1ccccc1)C1(c2ccccc2)CCN(S(=O)(=O)c2ccccc2)CC1,-17.1%
12,COc1ccc(NS(=O)(=O)c2ccc(C)c(C(=O)N(C)CC(=O)Nc3cccc(OC)c3)c2)cc1,-9.42%
13,S=c1[nH]nc([C@@H]2C[C@H]2c2ccccc2)n1-c1ccccc1Cl,11.1%
14,COc1ccc2[nH]c(C)c(C(=O)CN(C)C)c2c1,7.78%
15,O=C(NCCO)c1ccc(CSc2nc3ccccc3[nH]2)cc1,3.89%
16,O=C1CN(C(=O)c2c(F)cccc2F)C(c2ccc(F)cc2)c2cc(Br)ccc2N1 (stereo not drawn),-35.8%
17,O=C(NC1(C(F)(F)F)N=C2SCCN2C1=O)C1CCCCC1 (stereo not drawn),12.5%
18,CC1CN(C(=O)/C=C/c2cccc([N+](=O)[O-])c2)CC(C)O1 (stereo not drawn),-15.4%
19,Cc1cccc(S(=O)(=O)Nc2cccc3c2C(=O)c2ccccc2-3)c1,6.45%
20,CC(NC(=S)NCc1ccc(F)cc1)C12CC3CC(CC(C3)C1)C2 (stereo not drawn),18.3%
21,O=C1NC(=O)N(c2ccccc2F)C(=O)/C1=C/c1ccc(Oc2ccc([N+](=O)[O-])cn2)cc1,-0.542%
22,COc1cccc(=O)c2c(C)n(C)c(C)c12,-24.7%
23,Cc1cccc(C)c1NC(=O)c1cccc(N2C(=O)C3CCC(C)CC3C2=O)c1 (stereo not drawn),17.3%
24,COc1ccc(N2CC(=O)N(c3ccc(OC)c(OC)c3)CC2=O)cc1OC,2.26%
